Experimental data: ChEMBL document CHEMBL5606460, “ASAP - DENV-2 NS2B-NS3 protease fluorescence single point” (2024)
In all, about 2,000 compounds went through this assay and about 110 (5.5%) showed an effect of 50% or more. Some of the results follow.

Molecular target: Genome polyprotein (dengue virus type 2) (UniProt P29990)
[1] = Thailand/16681/1984, Concentration 25.0 uM, Number of replicates 1.0

In the case of `Cc1cc(CO)c2cccc(Cc3ccccc3C(=O)Nc3ccc(C(=O)O)o3)c2n1`, the inhibition (Thailand/16681/1984, Concentration 49.95 uM, Number of replicates 2.0, Standard deviation 1.5990008562851066 %) is reported as 16.8% and the inhibition (Thailand/16681/1984, Concentration 99.9 uM, Number of replicates 2.0, Standard deviation 2.1056511568076566 %) is reported as 34.4%.
`Cc1cc(CO)c2cccc(NC(=O)C3(C(N)=O)CC3)c2n1` was tested, and the inhibition (Thailand/16681/1984, Concentration 49.95 uM, Number of replicates 2.0, Standard deviation 2.1727408474420855 %) was 9.75% and the inhibition (Thailand/16681/1984, Concentration 99.9 uM, Number of replicates 2.0, Standard deviation 2.919282243144154 %) was 17%.
In the case of `O=Cc1ccc(N2CCC(C(=O)N3CCN(c4ncc(C(F)(F)F)cc4Cl)CC3)CC2)cc1`, the inhibition [1] is reported as -1.15%.
In the case of `Cc1cc(CO)c2cccc(Cc3cccc(C(=O)N(c4ncccn4)S(=O)(=O)c4ccc(N)cc4)c3)c2n1`, the inhibition (Thailand/16681/1984, Concentration 49.95 uM, Number of replicates 2.0, Standard deviation 1.2554851591331873 %) is reported as 27.5% and the inhibition (Thailand/16681/1984, Concentration 99.9 uM, Number of replicates 2.0, Standard deviation 1.7606970720097574 %) is reported as 55.5%.
With `Cn1nccc1NS(=O)(=O)c1ccc(Oc2ccccc2)cc1` the inhibition (Thailand/16681/1984, Concentration 49.5 uM, Number of replicates 2.0, Standard deviation 3.5994263366391306 %) was -1.13%, the inhibition (Thailand/16681/1984, Concentration 99.01 uM, Number of replicates 2.0, Standard deviation 3.358089435968294 %) was -0.763% and the inhibition (Thailand/16681/1984, Concentration 198.0 uM, Number of replicates 2.0, Standard deviation 3.347260224711905 %) was 0.891%.
`O=Cc1ccc(N2CCC(C(=O)N3CCC(Oc4ccccc4C(F)(F)F)CC3)CC2)cc1` gave an inhibition [1] of 2.31%.
With `O=Cc1ccc(N2CCC(C(=O)N3CCCN(CCCc4ccccc4)CC3)CC2)cc1` the inhibition [1] was 8.62%.
In the case of `CC(C)(C)OC(=O)N[C@H](C(=O)Nc1ccc(CN)cc1)c1ccc(OCc2ccccc2)cc1`, the inhibition (Thailand/16681/1984, Concentration 49.5 uM, Number of replicates 2.0, Standard deviation 0.7638001086987946 %) is reported as -1.42%, the inhibition (Thailand/16681/1984, Concentration 99.01 uM, Number of replicates 2.0, Standard deviation 0.5692523211680847 %) is reported as 0.423% and the inhibition (Thailand/16681/1984, Concentration 198.0 uM, Number of replicates 2.0, Standard deviation 0.3400589812244498 %) is reported as 5.26%.
Molecule `Cc1cc(CO)c2cccc(NCc3ccc(C(N)=O)cc3)c2n1` has an inhibition (Thailand/16681/1984, Concentration 49.95 uM, Number of replicates 2.0, Standard deviation 1.5291755401543807 %) of 1.6% and an inhibition (Thailand/16681/1984, Concentration 99.9 uM, Number of replicates 2.0, Standard deviation 0.4954793626184345 %) of 6.67%.
`Cc1cc(CO)c2cccc(Nc3ccc(C(=O)O)o3)c2n1` was tested, and the inhibition (Thailand/16681/1984, Concentration 49.95 uM, Number of replicates 2.0, Standard deviation 2.0261345521834873 %) was 10.8% and the inhibition (Thailand/16681/1984, Concentration 99.9 uM, Number of replicates 2.0, Standard deviation 1.7612979174821286 %) was 14%.
In the case of `C[C@H](NC(=O)C1CCN(c2ccc(C=O)cc2)CC1)c1cccc(C(F)(F)F)c1`, the inhibition [1] is reported as 11%.
`CC(=O)N[C@@H](CCCCN)C(=O)Nc1cccc2cccnc12` showed an inhibition (Thailand/16681/1984, Concentration 99.9 uM, Number of replicates 2.0, Standard deviation 1.5851773643231095 %) of -9.48%.
`O=Cc1ccc(N2CCC(C(=O)N[C@H](c3ccccc3)[C@@H](O)c3ccccc3)CC2)cc1` showed an inhibition [1] of 12%.
With `Cc1cc(CO)c2cccc(Cc3ccccc3NC(=O)c3ccno3)c2n1` the inhibition (Thailand/16681/1984, Concentration 49.95 uM, Number of replicates 2.0, Standard deviation 3.752588616330447 %) was 3.29% and the inhibition (Thailand/16681/1984, Concentration 99.9 uM, Number of replicates 2.0, Standard deviation 1.45880155634974 %) was 6.29%.
`O=Cc1ccc(N2CCC(C(=O)Nc3ccc(Br)cc3O)CC2)cc1` was tested, and the inhibition [1] was 31.4%.
`O=Cc1ccc(N2CCC(C(=O)NCc3nnc(-c4ccccc4)o3)CC2)cc1` showed an inhibition [1] of 14.1%.
With `Cc1cc(CO)c2cccc(Cc3ccccc3NC(=O)[C@@H]3CCCC[C@H]3C(=O)O)c2n1` the inhibition (Thailand/16681/1984, Concentration 49.95 uM, Number of replicates 2.0, Standard deviation 1.6921268468808375 %) was 5.96% and the inhibition (Thailand/16681/1984, Concentration 99.9 uM, Number of replicates 2.0, Standard deviation 1.4248763778715632 %) was 17.6%.
With `Cc1cc(CO)c2cccc(C[C@H](NC(=O)[C@@H]3C[C@@H](O)CN3)C(=O)O)c2n1` the inhibition (Thailand/16681/1984, Concentration 49.95 uM, Number of replicates 2.0, Standard deviation 1.1012335941421065 %) was 3.73% and the inhibition (Thailand/16681/1984, Concentration 99.9 uM, Number of replicates 2.0, Standard deviation 0.20808607176883367 %) was 10.4%.
Molecule `N#CC1(c2ccccc2)CCN(C(=O)C2CCN(c3ccc(C=O)cc3)CC2)CC1` has an inhibition [1] of 11.5%.
`CCn1nnc(Cn2cc(C3CCNCC3)c(C)n2)n1` was tested, and the inhibition (Thailand/16681/1984, Concentration 49.5 uM, Number of replicates 2.0, Standard deviation 0.5453516072891859 %) was -0.358%, the inhibition (Thailand/16681/1984, Concentration 99.01 uM, Number of replicates 2.0, Standard deviation 0.32114141041718347 %) was -0.944% and the inhibition (Thailand/16681/1984, Concentration 198.0 uM, Number of replicates 2.0, Standard deviation 0.8338806239972538 %) was -0.003%.
In the case of `O=Cc1ccc(N2CCC(C(=O)NCCc3cccc(Br)c3)CC2)cc1`, the inhibition [1] is reported as 11.8%.
Molecule `O=C(N[C@H](C(=O)O)c1ccc(OCc2ccccc2)cc1)OCc1ccccc1` has an inhibition (Thailand/16681/1984, Concentration 49.5 uM, Number of replicates 2.0, Standard deviation 1.5755205914644184 %) of 1.16%, an inhibition (Thailand/16681/1984, Concentration 99.01 uM, Number of replicates 2.0, Standard deviation 1.1157080020325059 %) of 3.53% and an inhibition (Thailand/16681/1984, Concentration 198.0 uM, Number of replicates 2.0, Standard deviation 0.14215963415330513 %) of 10.6%.
Work on `N#Cc1cccc(-c2nc3c(C(=O)NCc4cccnc4)cc(Cl)cc3[nH]2)c1` yielded an inhibition (Thailand/16681/1984, Concentration 99.5 uM, Number of replicates 2.0, Standard deviation 2.321247122631555 %) of 6.57% and an inhibition (Thailand/16681/1984, Concentration 295.6 uM, Number of replicates 2.0, Standard deviation 6.98688470817418 %) of 38.2%.
